The source gives no read counts; variants with many changes may rest on few reads.
B1: CPEB3 Ribozyme (parent)
chain: UAACAGGGGGCCACAGCAGAAGCGUUCACGUCGCAGCCCCUGUCAGAUUCUGGUGAAUCUGCGAAUUCUGCUGUAUAUCUC

Variants of: B1
Experiment: self-cleavage, relative activity (ratio to wild type); higher = more cleavage; in vitro, sequencing
How it was run: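 CPEB3 self-cleaving ribozyme mutant libraries were made by rounds of error-prone PCR, barcoded, and transcribed in vitro with T7 RNA polymerase for 5 hours at 37°C. Cleavage occurred during transcription and a 15 min DNase I step before EDTA stop. RNAs were reverse transcribed with template switching and Illumina-sequenced, with DNA sequencing mapping barcodes to variants. Relative activity is the variant's cleaved/total read fraction divided by wild type's (minimum 5 reads), averaged across three batches.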

Row | Variant | self-cleavage
1 | A18G C38U U43C U60C | 0.21
2 | A18G C38U U60A | 0.19
3 | A18G C38U U66C | 0.17
4 | A18G C38U U69A | 0.1
5 | A18G C39A A45U A75U | 0.2
6 | A18G C39A C50G | 0.18
7 | A18G C39A U41C A57G U76C U80C | 0.1
8 | A18G C39A U69C | 0.14
9 | A18G C39U G63A | 0.34
10 | A18G C39U G63A A64G U72A | 0.12
11 | A18G C39U U41C U58C | 0.1
12 | A18G C40A U66C | 0.15
13 | A18G C40U G46U U48C | 0.04
14 | A18G C40U U41C | 0.32
15 | A18G C44A A45G | 0.27
16 | A18G C44G A45G U74G U80C | 0.11
17 | A18G C44G U74G U76G | 0.26
18 | A18G C44U U51A A65G U72C | 0.15
19 | A18G C44U U60A U66C | 0.25
20 | A18G C50U U54G A75G | 0.23
21 | A18G C50U U80C | 0.36

Row | Variant | self-cleavage
22 | A18G C62G U76A | 0.26
23 | A18G C62U U76G | 0.35
24 | A18G C62U U80C | 0.22
25 | A18G C68A U69C U74A U80A | 1.08
26 | A18G C68A U69C U80G | 0.54
27 | A18G C71A U78C | 0.16
28 | A18G G19A A45G U67A | 0.28
29 | A18G G19A G61U | 0.14
30 | A18G G19A U25A | 0.09
31 | A18G G19A U76C | 0.48
32 | A18G G19U A21G A47G | 0.1
33 | A18G G19U U41C A45G U51A | 0.23
34 | A18G G19U U41C U51A U80C | 0.22
35 | A18G G19U U41G A57G | 0.09
36 | A18G G19U U69C U72A U78C | 0.11
37 | A18G G22A C27A U60A | 0.06
38 | A18G G22A G36A A77G | 0.14
39 | A18G G22A U25C U67A | 0.39
40 | A18G G22A U26A U41G | 0.28
41 | A18G G22A U41G | 0.44
42 | A18G G22A U51A U58C U60C U67C | 0.04

Row | Variant | self-cleavage
43 | A18G G22C U72C | 0.29
44 | A18G G22U U48C A65G U72C | 0.14
45 | A18G G24A A28G U31A U66C | 0.21
46 | A18G G24A A28G U72A | 0
47 | A18G G24A A35G U72C | 0.05
48 | A18G G24A A47G A56U A64G | 0.22
49 | A18G G24A A47G U74A | 0.28
50 | A18G G24A A56U A65G | 0.32
51 | A18G G24A C32U U76A | 0.05
52 | A18G G24A C37A U67A | 0.08
53 | A18G G24A U51A U80A | 0.04
54 | A18G G24A U69C U72A | 0.12
55 | A18G G24C C27G | 0.3
56 | A18G G24C U48C U80A | 0.07
57 | A18G G24C U49A U54C U58C U60C | 0.11
58 | A18G G24U G36U U51C U66C | 0.28
59 | A18G G30A A35G A45U U54C U69C | 0.16
60 | A18G G30A A35G U54C U69C | 0.1
61 | A18G G30A A47U U48A | 0.18
62 | A18G G30A A56G A77G | 0.13
63 | A18G G30A C40A U51C | 0.13

Row | Variant | self-cleavage
64 | A18G G30A G52A U66C | 0.2
65 | A18G G30A U41C U43C A57G U69G | 0.18
66 | A18G G30A U43A | 0.11
67 | A18G G30A U49A A75G | 0.17
68 | A18G G30A U49C A65G U69A | 0.32
69 | A18G G30A U54C U67C U69A U72C A75G | 0.09
70 | A18G G30A U58C U72C | 0.13
71 | A18G G30C C38U U41C U72A | 0.07
72 | A18G G33A A57C | 0.12
73 | A18G G33A U41A U43C C44U U54C A65U | 0.1
74 | A18G G33A U66A | 0.03
75 | A18G G33A U69C | 0.16
76 | A18G G33C A45C U48C U54A A65G | 0.06
77 | A18G G33U A45U U72G U80A | 0.39
78 | A18G G33U U41A A45G A56G | 0.05
79 | A18G G36A A45G U76C | 0.1
80 | A18G G36A U43C A57G U58C U74A U76A | 0.04
81 | A18G G36A U60A | 0.03
82 | A18G G36U A56G A64U | 0.1
83 | A18G G46A A47G U54C | 0.07
84 | A18G G46A U60G U69C | 0.12

— the RNAGym collection of RNA variant scans (doi:10.1093/nar/gkz1192)
